Usually inhibition stands for the change of the read-out against control, counted positive when it falls.

The campaign covered roughly 340,000 compounds. About 6,900 (2%) were called active. No stated cut-off is given here; in the data, active means inhibition above about 30%; inactive means below that, where a call was filed. This is a selection; strong and weak results do not stand in their true shares. Where no call is shown, the source filed none. A structure can be active in one record and inactive in another.

Data on 61 compounds can be found in PubChem BioAssay AID485344 (National Center for Advancing Translational Sciences (NCATS), 2010).

For the experiment, the target named is D(2) dopamine receptor (Homo sapiens) (UniProt P14416). Nature of the experiment: HTS Assay for Allosteric Antagonists of the Human D2 Dopamine Receptor: Primary Screen for Antagonists. Further: 0% is about no effect. As to conditions: HEK293 TREx D2 cells, calcium flux, dopamine EC80; at 10 µM; stronger effect = higher value. The method, boiled down: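 Antagonism is scored as inhibition of an EC80 dopamine-evoked calcium signal in a force-coupled, tetracycline-inducible HEK293 T-REx D2 line, with compound present 180 s before agonist.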
Sequence of UniProt P14416 (P14416 whole entry, looked up): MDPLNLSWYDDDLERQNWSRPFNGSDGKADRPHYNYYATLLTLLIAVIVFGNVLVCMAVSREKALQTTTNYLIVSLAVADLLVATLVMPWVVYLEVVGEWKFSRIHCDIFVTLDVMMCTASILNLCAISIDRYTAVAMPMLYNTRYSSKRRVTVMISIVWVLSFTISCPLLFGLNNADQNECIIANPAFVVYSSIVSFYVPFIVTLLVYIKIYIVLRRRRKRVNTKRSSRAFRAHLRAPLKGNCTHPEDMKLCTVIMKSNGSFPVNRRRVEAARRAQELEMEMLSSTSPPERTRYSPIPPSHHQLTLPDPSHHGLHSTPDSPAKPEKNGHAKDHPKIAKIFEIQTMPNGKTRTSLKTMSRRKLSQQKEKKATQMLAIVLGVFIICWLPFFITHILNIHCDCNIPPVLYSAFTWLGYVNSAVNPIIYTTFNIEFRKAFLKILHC
`O=C(Cn1c(=O)ccc2cc(S(=O)(=O)N3CCCC3)ccc21)NCc1ccc(Cl)cc1`: the inhibition worked out at 18.1%.

On to `COc1cc(-c2noc(-c3ccc(N4CCN(C)CC4)c([N+](=O)[O-])c3)n2)cc(OC)c1OC`, for which the inhibition came to 2.26%. Then `O=C(c1ccc(Cl)cc1)N1CCC(c2ccncc2)CC1`, with -14.2%. As for `CCN(CC)S(=O)(=O)c1ccc2nc(NC(=O)c3cccnc3)sc2c1`, the inhibition was determined as 1.8%. Consider `CCOC(=O)c1cc(S(=O)(=O)NCc2ccccc2)[nH]n1`, for which the inhibition is 6.4%.

With `CC1CCCCN1C(=O)C12CCC(C)(/C(=N/O)C1)C2(C)C` (stereo unspecified), the inhibition was active: 34.6%. For the compound `Cc1ccc(NC(=O)CN(C)C(=O)c2cccc(S(=O)(=O)NCc3ccccc3)c2)cc1`, the inhibition is active: 45.9%. As for `CC1=C(C(=O)Nc2ccccc2)C(c2ccncc2)n2nc(SCc3ccccc3Cl)nc2N1` (stereo unspecified), the figure is -13.8%. Then `O=C(Cn1c(=O)n(Cc2ccco2)c(=O)c2ccccc21)Nc1ccc(Cl)cc1Cl`, with 0.542%; and `Cc1ccc(S(=O)(=O)Cc2ccc(C(=O)N3CCN(c4cccc(C)c4C)CC3)o2)cc1`, with -22.6%; and `COc1ccc(C(=O)OCc2cc(=O)n3nc(-c4cccs4)sc3n2)cc1`, with -11.9%. As for `CCC(Cn1nnc2ccccc2c1=O)NC(=O)Nc1cccc(C)c1C` (stereo unspecified), the figure is -3.89%. As to `O=[N+]([O-])c1cc(-c2nc(-c3ccccc3)no2)ccc1N1CCCCC1`, the inhibition is -12.1%.

In the case of `Cc1ccc(NC(=O)C2CCCN(c3nnc(C)c4c(C)n(-c5ccccc5)nc34)C2)c(Cl)c1` (stereo unspecified), the inhibition is -12%. With `CCC(=O)N1CCc2cc(Br)cc(S(=O)(=O)CCC(=O)N3CCN(c4cccc(C(F)(F)F)c4)CC3)c21`, the inhibition is -27%. Then `Cc1ccc(CNC(=O)Cc2c(C)c3cc4c(C)coc4cc3oc2=O)cc1`, with -13.4%; and `O=C(COc1ccccc1Cl)OCc1cc(=O)n2nc(-c3cccs3)sc2n1`, with 10.9%. As for `CCOC(=O)c1c(NC(=O)c2nc(SCC)ncc2Cl)sc(C(C)=O)c1C`, the figure is 12.5%. Take `CCOC(=O)c1ccc(N2CCN(c3cccc(OC)c3)CC2)c(NC(=O)Nc2ccc(OCC)cc2)c1`: the inhibition was -0.75%. Turning to `O=C(O)c1ccc(CNCc2ccc(Cl)cc2)s1`, the inhibition turned out to be 4.17%.

For `Cc1ccc2nc(Nc3cccc(Cl)c3C)c(-n3nc(C)cc3C)nc2c1`, the inhibition turned out to be 12.2%.

`Cc1ccccc1NC(=O)Cn1c(SCC(=O)Nc2ccc(F)cc2)nc2ccccc21`: the inhibition was -28.6%. As to `CCCC(=O)Nc1ccc2c(c1)nc(CCN1CCN(c3ccccn3)CC1)n2C`, the inhibition is active: 46.8%. As to `OC(COc1ccc(F)cc1)CN1CCN(c2ccccc2F)CC1` (stereo unspecified), the inhibition was active: 86.9%. Take `Cc1ccc(-c2nc3cnccn3c2Nc2ccc3c(c2)OCO3)o1`: the inhibition was active: 35.5%. With `COc1cc(CNC(=O)c2ccc3c(c2)N(C)C(=O)C2CCCCN32)cc(OC)c1OC` (stereo unspecified), the inhibition was 4.41%. Then `COC(=O)c1cc2sc(C)cc2n1CC(=O)Nc1ccc(C)c(C)c1`, with -11.4%.

For the compound `CCc1ccc(NC(=O)CN2CCCN(Cc3cccc(Cl)c3)S2(=O)=O)cc1`, the inhibition was -2.89%. As for `CCOc1ccc(NC(=O)c2cc(S(=O)(=O)N3CCCCCC3)cn2C)cc1`, the inhibition is -18.2%.

For the compound `Cc1c2cnn(-c3ccccc3)c(=O)c2c(C)n1CC(=O)NCCc1ccc(Cl)cc1`, the inhibition came to 4.03%. As for `COc1ccc2c(c1)c1c(c(=O)n(-c3ccc(F)c(Cl)c3)c(=O)n1CC(=O)N1CCCC1)n2C`, the figure is -3.92%; as for `Cc1ccc(-n2c(=O)c3c4c(sc3n(CC(=O)c3ccc(Cl)cc3)c2=O)CCC4)cc1C`, 1.74%. Then `CC(=O)N1c2ccc(S(=O)(=O)NCC3CCC(C(=O)Nc4ccc(C)cc4)CC3)cc2CC1C` (stereo unspecified), with 0.434%; and `CN(Cc1ccco1)C(=O)c1ccc2c(c1)N(Cc1ccccc1F)C(=O)c1ccccc1S2`, with -3.71%; and `COCCn1c(SCc2nc3sc(C(=O)OC)c(C)c3c(=O)[nH]2)nc2ccccc21`, with active: 30.6%. Then `Cc1cc(C(=O)COC(=O)Cn2cnc3c2c(=O)n(C)c(=O)n3C)c(C)n1C`, with active: 45%; and `COc1ccccc1-c1nnc(SCC(=O)Nc2ccccc2F)o1`, with 6.18%; and `CCC1CN(C(=O)N2CCC(C(=O)N3CCN(c4cccc(C)c4C)CC3)CC2)c2ccccc2O1` (stereo unspecified), with -16.5%.

`Cc1ccc(Cl)cc1NC(=O)CCC(=O)N1CC(C)Sc2ccccc21` (stereo unspecified): the inhibition turned out to be 0.437%. As for `O=C(NCCc1ccc(Cl)cc1)C1CCN(c2ncnc3c2nc2n3CCCCC2)CC1`, the figure is 10%; as for `COC(=O)c1ccsc1NC(=O)CS(=O)(=O)c1ccccc1`, active: 30.6%. Then `O=C(CSc1nnc(-c2cccc(Cl)c2)o1)N1CCc2ccccc21`, with 0.602%; and `COc1cc(C(=O)OC(C)CN2CCOCC2)cc(OC)c1OC` (stereo unspecified), with active: 40%; and `Cc1ccn2c(Nc3ccc(C(C)C)cc3)c(-c3cccs3)nc2c1`, with 8.07%. Regarding `COc1ccc(C2C=C(c3cccc(OC)c3)Nc3c(C(=O)Nc4ccccc4)cnn32)cc1` (stereo unspecified), the inhibition was -18.5%. Consider `O=C(Nc1ccc2oc(-c3ccc(O)c(Br)c3)nc2c1)c1cc2ccccc2o1`, for which the inhibition came out at 2.12%. `CC(=O)Nc1cccc(NC(=O)CN2C(=O)CCSc3ccccc32)c1`: the inhibition was -9.24%.

Regarding `O=c1[nH]c(NNC(=S)NC2CCCCC2)nc2c1C1(CCCC1)Cc1ccccc1-2`, the inhibition was active: 38.2%. Then `Cc1nc2nc(NC(=O)c3ccccc3F)[nH]n2c(=O)c1Cl`, with -13.9%; and `CC(C)CN(CCCNC(=O)c1cc(=O)[nH]c2ccc(S(=O)(=O)N3CCCCCC3)cc12)CC(C)C`, with -3.53%. Then `CC(=O)N1c2nc(C(C)C)nn2C2(CCCCC2)[C@@H]2CCCC[C@@H]21`, with 0.337%; and `Cc1nn(-c2ccc(F)cc2)c(-n2cccc2)c1C(=O)N1CCN(c2ccc(F)cc2)CC1`, with 0.168%. Then `CNC[C@H](O)c1cccc(O)c1`, with active: 90.9%; and `COc1ccc(NC(=O)c2nnn(Cc3ccccc3C)c2N)c(OC)c1`, with 7.41%; and `Cc1ccc(C(=O)Nc2c(-c3ccccc3)nc3ccccn23)cc1C`, with -7.46%. For `O=C(CSc1ccc(-c2ccccn2)nn1)Nc1ccc(F)c(F)c1`, the inhibition came to 1.37%. `CN(C)CCNC(=O)C1CCN(c2nc3ccccc3[nH]2)CC1`: the inhibition is -20.7%. Turning to `COc1ccc(NC(=O)Nc2nnc(N3CCCCCC3)s2)cc1`, the inhibition was -0.677%. In the case of `Cc1ccc(NC(=O)c2nc(S(C)(=O)=O)ncc2N(Cc2ccccc2)Cc2ccco2)c(C)c1`, the inhibition worked out at 10.1%. For the compound `Cc1c(NC(=O)c2cc([N+](=O)[O-])ccc2N2CCOCC2)cccc1-c1nc2ccccc2o1`, the inhibition was -9.54%. As for `Cc1ccc(C2CC(=O)N(Cc3ccccc3F)c3c2c(C)nn3-c2nc(C)cc(C)n2)cc1` (stereo unspecified), the figure is 17%.
